Results: patent US20230279153A1 (Regeneron, published 2023)

Tests used:
mouse PD1 [1] = target: T1, mouse PD1 (mouse, UniProt Q02242 25-288); assay: cell-based or functional assay
T1 sequence (looked up): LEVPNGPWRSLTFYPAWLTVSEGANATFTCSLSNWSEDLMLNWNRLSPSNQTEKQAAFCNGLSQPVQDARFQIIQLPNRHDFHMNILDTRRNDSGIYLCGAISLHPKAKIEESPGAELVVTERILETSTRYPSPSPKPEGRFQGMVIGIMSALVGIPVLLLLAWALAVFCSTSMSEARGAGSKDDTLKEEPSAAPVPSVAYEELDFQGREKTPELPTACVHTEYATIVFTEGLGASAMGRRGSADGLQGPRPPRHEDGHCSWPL

mouse CD20 [2] = target: T2, mouse CD20 (mouse, UniProt P19437 1-291); assay: flow cytometry on MC38/mCD20 cells
T2 construct: whole, on cells; also called mCD20; murine CD20
T2 sequence (looked up): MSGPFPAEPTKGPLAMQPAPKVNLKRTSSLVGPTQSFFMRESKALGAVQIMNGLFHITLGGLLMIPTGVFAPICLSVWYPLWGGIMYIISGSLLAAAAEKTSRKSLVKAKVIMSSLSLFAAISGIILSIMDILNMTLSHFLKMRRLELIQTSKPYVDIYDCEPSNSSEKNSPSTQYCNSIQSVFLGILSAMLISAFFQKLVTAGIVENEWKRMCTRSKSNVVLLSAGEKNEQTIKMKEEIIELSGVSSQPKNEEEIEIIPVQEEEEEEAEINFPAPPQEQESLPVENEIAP
Procedure: (§1) Cells (HEK 293, MC38 over-expressing mCD20 or Jurkat over-expressing mPD1) were resuspended in FACS wash (PBS with 1% FBS) at 1×10⁶ cells/mL. The staining was performed in 1×10⁵ cells per well. The antibodies were diluted with a ratio of 1:5 from a starting concentration of 1.3×10⁻⁰⁷ M. The diluted antibodies were then added into the wells containing cells. Cells were stained for 30 min at 2-8° C. and washed twice with FACS wash buffer. APC-conjugated goat anti-human IgG (Jackson Immuno Research, 109-607-003, 1:400) was added to stain the cells for 30 min at 2-8° C. Following washing, cells were fixed in 2% paraformaldehyde for 30 min at 2-8° C. After two washes, stained cells were analyzed using BD LSRFortessa™ FACS instrument. The results were analyzed by FlowJo. FSC/SSC gates were used to select mononuclear cells.

mouse PD1 [3] = target: T1, mouse PD1; assay: flow cytometry on Jurkat/mPD1 cells
Procedure: as §1

mouse CD20 [4] = target: T2, mouse CD20; assay: flow cytometry on HEK293/mCD20 cells
Procedure: as §1

B1: 2 + 1 m20_mPL_3 (Fc fusion)
heavy 1: QVQLQQPGAELVRPGTSVKLSCKASGYTFTSYWMHWIKQRPGQGLEWIGVIDPSDNYTKYNQKFKGKATLTVDTSSSTAYMQLSSLTSEDSAVYFCAREGYYGSSPWFAYWGQGTLVTVSSASTKGPSVFPLAPSSKSTSGGTAALGCLVKDYFPEPVTVSWNSGALTSGVHTFPAVLQSSGLYSLSSVVTVPSSSLGTQTYICNVNHKPSNTKVDKKVEPKSCDGGGGSGGGGS[letters of about 200 residues left out][letters of about 250 residues left out]
heavy 2: QVQLQQPGAELVRPGTSVKLSCKASGYTFTSYWMHWIKQRPGQGLEWIGVIDPSDNYTKYNQKFKGKATLTVDTSSSTAYMQLSSLTSEDSAVYFCAREGYYGSSPWFAYWGQGTLVTVSSASTKGPSVFPLAPSSKSTSGGTAALGCLVKDYFPEPVTVSWNSGALTSGVHTFPAVLQSSGLYSLSSVVTVPSSSLGTQTYICNVNHKPSNTKVDKKVEPKSCDKTHTCPPCPAPEAEGAPSVFLFPPKPKDTLMISRTPEVTCVVVDVSHEDPEVKFNWYVDGVEVHNAKTKPREEQYNSTYRVVSVLTVLHQDWLNGKEYKCKVSNKALPSSIEKTISKAKGQPREPQVCTLPPSRDELTKNQVSLSCAVKGFYPSDIAVEWESNGQPENNYKTTPPVLDSDGSFFLVSKLTVDKSRWQQGNVFSCSVMHEALHNRFTQKSLSLSPGK
light: QIVMSQSPAILSASPGEKVTMTCRARSSVSYIHWYQQKPGSSPKPWIYATSNLASGVPGRFSGSGSGTSYSLTITRVEAEDAATYYCQQWSSKPPTFGGGTKLEIKRTVAAPSVFIFPPSDEQLKSGTASVVCLLNNFYPREAKVQWKVDNALQSGNSQESVTEQDSKDSTYSLSSTLTLSKADYEKHKVYACEVTHQGLSSPVTKSFNRGEC
notes: Knob-into-hole heterodimer, 2 anti-mCD20 Fabs + 1 mPDL1 ectodomain between Fab and Fc
IC50 (M), luciferase bioassay, 1nM CD3 bsAb (mouse PD1 [1]): 7.7e-10 M
IC50 (M), luciferase bioassay, 2.5 nM CD3 bsAb (mouse PD1 [1]): 3.16e-10 M
Max % inhibition, luciferase bioassay, 1nM CD3 bsAb (mouse PD1 [1]): 80%
Max % inhibition, luciferase bioassay, 2.5 nM CD3 bsAb (mouse PD1 [1]): 74%
EC50 (mouse CD20 [2]): 3.93 nM
Max MFI (mouse CD20 [2]): 52900 MFI
Max MFI (mouse PD1 [3]): 5630 MFI
EC50 (mouse CD20 [4]): 15 nM
Max MFI (mouse CD20 [4]): 28900 MFI

B2: 2 + 2 m20_mPL_4 (Fc fusion)
heavy: QVQLQQPGAELVRPGTSVKLSCKASGYTFTSYWMHWIKQRPGQGLEWIGVIDPSDNYTKYNQKFKGKATLTVDTSSSTAYMQLSSLTSEDSAVYFCAREGYYGSSPWFAYWGQGTLVTVSSASTKGPSVFPLAPSSKSTSGGTAALGCLVKDYFPEPVTVSWNSGALTSGVHTFPAVLQSSGLYSLSSVVTVPSSSLGTQTYICNVNHKPSNTKVDKKVEPKSCDGGGGSGGGGS[letters of about 200 residues left out][letters of about 250 residues left out]
light: QIVMSQSPAILSASPGEKVTMTCRARSSVSYIHWYQQKPGSSPKPWIYATSNLASGVPGRFSGSGSGTSYSLTITRVEAEDAATYYCQQWSSKPPTFGGGTKLEIKRTVAAPSVFIFPPSDEQLKSGTASVVCLLNNFYPREAKVQWKVDNALQSGNSQESVTEQDSKDSTYSLSSTLTLSKADYEKHKVYACEVTHQGLSSPVTKSFNRGEC
notes: Homodimer
IC50 (M), luciferase bioassay, 1nM CD3 bsAb (mouse PD1 [1]): 1.91e-10 M
Max % inhibition, luciferase bioassay, 1nM CD3 bsAb (mouse PD1 [1]): 84%
Max MFI (mouse PD1 [3]): 18900 MFI
EC50 (mouse CD20 [4]): 11.3 nM
Max MFI (mouse CD20 [4]): 30300 MFI

B3: 2 + 2 m20_mPL_3 (Fc fusion)
heavy: QVQLQQPGAELVRPGTSVKLSCKASGYTFTSYWMHWIKQRPGQGLEWIGVIDPSDNYTKYNQKFKGKATLTVDTSSSTAYMQLSSLTSEDSAVYFCAREGYYGSSPWFAYWGQGTLVTVSSASTKGPSVFPLAPSSKSTSGGTAALGCLVKDYFPEPVTVSWNSGALTSGVHTFPAVLQSSGLYSLSSVVTVPSSSLGTQTYICNVNHKPSNTKVDKKVEPKSCDKTHTCPPCPAPEAEGAPSVFLFPPKPKDTLMISRTPEVTCVVVDVSHEDPEVKFNWYVDGVEVHNAKTKPREEQYNSTYRVVSVLTVLHQDWLNGKEYKCKVSNKALPSSIEKTISKAKGQPREPQVCTLPPSRDELTKNQVSLSCAVKGFYPSDIAVEWESNGQPENNYKTTPPVLDSDGSFFLVSKLTVDKSRWQQGNVFSCSVMHEALHNRFTQKSLSLSPGKGGGGSGGGGSGGGGSQVQLQQPGAELVRPGTSVKLSCKASGYTFTSYWMHWIKQRPGQGLEWIGVIDPSDNYTKYNQKFKGKATLTVDTSSSTAYMQLSSLTSEDSAVYFCAREGYYGSSPWFAYWGQGTLVTVSSASTKGPSVFPLAPSSKSTSGGTAALGCLVKDYFPEPVTVSWNSGALTSGVHTFPAVLQSSGLYSLSSVVTVPSSSLGTQTYICNVNHKPSNTKVDKKVEPKSCD
light: QIVMSQSPAILSASPGEKVTMTCRARSSVSYIHWYQQKPGSSPKPWIYATSNLASGVPGRFSGSGSGTSYSLTITRVEAEDAATYYCQQWSSKPPTFGGGTKLEIKRTVAAPSVFIFPPSDEQLKSGTASVVCLLNNFYPREAKVQWKVDNALQSGNSQESVTEQDSKDSTYSLSSTLTLSKADYEKHKVYACEVTHQGLSSPVTKSFNRGEC
chain: [letters of about 200 residues left out][letters of about 250 residues left out][letters of about 200 residues left out]
notes: Knob-into-hole heterodimer: one arm carries both Fabs, the other both mPDL1 ectodomains
IC50 (M), luciferase bioassay, 2.5 nM CD3 bsAb (mouse PD1 [1]): 6.5e-11 M
Max % inhibition, luciferase bioassay, 2.5 nM CD3 bsAb (mouse PD1 [1]): 33%
EC50 (mouse CD20 [2]): 8.42 nM
Max MFI (mouse CD20 [2]): 35300 MFI
EC50 (mouse PD1 [3]): 6.31 nM
Max MFI (mouse PD1 [3]): 6980 MFI
